The other results are listed elsewhere or left out.

This assay relates to PfHDP1 homeodomain (GST-tagged). As to the kind of experiment: gcPBM binding intensity (ln(normalized median fluorescence intensity)); higher = stronger DNA binding. Summed up: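 An Agilent 4 × 180k array carrying primer-extended double-stranded 36-bp intergenic genomic probes and negative controls received GST-tagged P. falciparum DNA-binding domains expressed in E. coli, about 25 μg on average, for 1 h. The binding buffer contained 1× PBS, 1% milk, 0.2 mg/ml BSA, 0.5% salmon testes DNA and 0.03% Triton X-100. Binding intensity is the top Masliner-normalised natural-log median intensity across replicate spots of either probe orientation, read after Alexa488 anti-GST antibody staining and a 488 nm scan.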
“CCAAATTTATAAAGAACACACACATATATATATATA [CACACA_site7900]”: the “gcPBM binding intensity (ln)” value came to 9.23. In the case of “TATACATATTTAATATGTACATAATAATACTTATTC [XGTACX_site6939]” it was 6.23; in that of “AAGCATGTAGAATAATGTACTTGTGATTTTAATATA [XGTACX_site8565]”, 6.25.

On to “TTATTAAATGAAAAATGTACATATAAATGATTATAT [XGTACX_site2788]”, for which the “gcPBM binding intensity (ln)” value was determined as 6.41. The value for “GAAATGTGTAGACACGCACACACAAAAAAATATATA [CACACA_site2912]” was 6.64; that for “AAAAATAAAAAAATAATAAAATAAAAAATAAAAAAT [TGCATGCA_negctrl_site89]” was 6.46; that for “TAAAAAAACATATATTGTACGGAGATAATAATTTTT [XGTACX_site2946]” was 6.39. With “ATGTATAAACATATATGTACTTAAATAAAATGTTAA [XGTACX_site4044]”, the “gcPBM binding intensity (ln)” value turned out to be 6.53. Turning to “CACCAATTCATATGCACACACATCTGCATATTATAT [CACACA_site1773]”, the “gcPBM binding intensity (ln)” value worked out at 10.3. The value for “ATTAAAAGAACAATGTAAAAAAAGCAAATTAAAGAT [TGCATGCA_negctrl_site360]” was 7.23; that for “TATACTGTCAATTCTACACACCATAGGGGGAGCATA [CACACA_site1875]” was 7.48; that for “TTCTAATATATGCATACACACAAATGTGAATATACA [CACACA_site2142]” was 7.22. The value for “TTTTTTATTACTTTGTGTACTTACACAGAACCTTAT [XGTACX_site6038]” was 6.7. In the case of “AAAAATGCAATTTAATGTACACATAAGATGTTATTT [XGTACX_site6853]” it was 7.68; in that of “AAAAAAAAAAAAAACACACACACACCCAAATATATA [CACACA_site1169]”, 6.74. Regarding “ATATATTTATTTATATGTACATAATATTTTTCTCAG [XGTACX_site800]”, the “gcPBM binding intensity (ln)” value worked out at 6.57. In the case of “ATAAAAATATAAACATGTACATAAAAATCTATATAT [XGTACX_site405]” it was 6.72; in that of “TTGCTTATATTTCTAAAATGTAAAAGACACAAAGGT [XGTACX_negctrl_site225]”, 6.73; in that of “AGATACTTTTTTAAAAGTACAAAAACTTTCGATATA [XGTACX_site959]”, 6.12. In the case of “ATATTTTTTGTATGTTGTACATAAAATATACATTTT [XGTACX_site6815]” it was 6.44; in that of “TCTAAAATAGTCCAGAGTACAAGAAACCATAATATA [XGTACX_site5237]”, 6.17; in that of “CATACATACATACATACACACATACATATATATATA [CACACA_site8388]”, 8.96. The value for “AATTCTTTTTTCAACACACACACACCCGAAAATATA [CACACA_site3111]” was 7.53. As to “ATATAGGTAATATTTTGTACATATTTTTGGGGTAGT [XGTACX_site5634]”, the “gcPBM binding intensity (ln)” value is 7.35.

Turning to “GATAATTTTTGCATATGTACTTAAAAATTAAAAATT [XGTACX_site7037]”, the “gcPBM binding intensity (ln)” value amounted to 7.15. In the case of “AAAAAAAAAAAAGGTACTACACACTATTATCAATAG [XGTACX_site161]” it was 6.26; in that of “ACATTTATTTTGAATGGTACACTATTATTATGAAAT [XGTACX_site4384]”, 6.14; in that of “GACCTACAAAAAGGCACACATATACTCATACATACA [CACACA_site5232]”, 6.71. The value for GTGTAATGCTTATCGGTGCATATATATATATATATA was 10.4; that for “AAAAAAGAAACAATCGCATGCAATGTTAATGTACAT [TGCATGCA_site395]” was 6.77. As to “AGGTGTCATATATGCACACAAAAGTAACACGCACCT [CACACA_site472]”, the “gcPBM binding intensity (ln)” value came to 9.78. The value for “TACGCAAAATAAAATCAAAATATAAGGAAAAAAAAA [TGCATGCA_negctrl_site578]” was 5.96. In the case of “TTTTTTAAACGTTTAAATAATTAAATATAAATAAAT [CACACA_negctrl_site1567]” it was 6.22; in that of “TGAACAACTATTACTGCACACATTCTTACACTATAT [CACACA_site4533]”, 8.36. In the case of “AGGATTATATATTAATGTACCCGCGTTAATTTTTTT [XGTACX_site2878]” it was 6.2. Consider “AAATAGAGAAATACAAGTACATACTAAACCTATCTA [XGTACX_site1334]”, for which the “gcPBM binding intensity (ln)” value was 6. The value for “TCTAATAAAATAAATACATGCATACATACATACATA [TGCATGCA_site895]” was 6.39; that for “TATCTCTACAAAATTTTATTCATTATTCATGTTATA [XGTACX_negctrl_site452]” was 6.7; that for “GTACAATAAGATGTAGCATGCCGTACCTTCACTACG [TGCATGCA_site235]” was 6.52. In the case of “ACAAAGAAATATAATACACACAAGAATATATTGGAT [CACACA_site3901]” it was 6.81; in that of “TAATATTTATCAAGTCGTACATAAAATGTATAATAA [XGTACX_site1103]”, 6.13; in that of “ATACTGTATGAAAGCACACATACTTATTACTAACAT [CACACA_site4164]”, 6.6.

For “CAAATAACAAAATAATGTACATTTATACTTTTTTTT [XGTACX_site943]”, the “gcPBM binding intensity (ln)” value is 6.32. As for “TATACATATTTGTATTGTACATAAACTAAATCTTCA [XGTACX_site610]”, the “gcPBM binding intensity (ln)” value is 5.98. In the case of “TTCTATGAATTCATAGTGCAAATGAGTTATTTTTTC [GTGCAC_site9709]” it was 8.72.

Values taken from the supplement of paper PMC11417369.
